Experimental data as given in the supplement of paper PMC3334620.
In all, about 33,000 sequences were measured (“E-score (-0.5 to 0.5)”: median about -0.016, highest 2% from about 0.32 on). The list shows a part of the results.

Target: T1, Stp1 (UniProt B3LFK1)
T1 sequence: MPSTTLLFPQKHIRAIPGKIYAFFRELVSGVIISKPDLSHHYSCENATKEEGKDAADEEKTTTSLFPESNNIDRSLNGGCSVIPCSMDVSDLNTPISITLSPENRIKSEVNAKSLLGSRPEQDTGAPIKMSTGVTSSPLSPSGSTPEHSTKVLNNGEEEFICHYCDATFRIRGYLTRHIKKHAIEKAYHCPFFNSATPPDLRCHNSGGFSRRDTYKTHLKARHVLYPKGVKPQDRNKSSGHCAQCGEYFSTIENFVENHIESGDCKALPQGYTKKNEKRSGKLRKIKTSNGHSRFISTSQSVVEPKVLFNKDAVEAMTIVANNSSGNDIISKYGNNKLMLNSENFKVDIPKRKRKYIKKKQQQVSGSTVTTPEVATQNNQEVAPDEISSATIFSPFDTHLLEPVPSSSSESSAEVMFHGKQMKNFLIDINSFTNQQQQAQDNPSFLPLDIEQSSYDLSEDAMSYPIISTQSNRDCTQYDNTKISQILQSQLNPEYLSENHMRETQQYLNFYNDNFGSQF
Assay: PBM E-score (8-mer binding enrichment) (E-score (-0.5 to 0.5)); higher = stronger / more preferred TF binding; most listed sequences are background and not binding sites
Conditions: protein concentration: 200 nM; construct: GST-full length
Summary of the method: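 Masliner-normalised scans of fluorescent anti-GST signal were the basis for scoring. That signal came from GST-tagged yeast transcription factors applied at about 100-200 nM to double-stranded universal all-10-mer Agilent arrays on fresh or once-stripped slides. Each ungapped eight-base word, pooled with its reverse complement, received an E-score from the Universal PBM Analysis Suite.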

Row | Sequence | PBM E-score
1 | AATTACCC | -0.19
2 | CCAAAGCA | -0.132
3 | ATCCTTGC | -0.0193
4 | AACCATTG | -0.0202
5 | CAGAATGA | 0.0394
6 | GAAATGAA | 0.112
7 | ACTACCTA | 0.0508
8 | GTGTAGAA | 0.0309
9 | CTATAGAC | -0.0316
10 | CGACGAAG | 0.11
11 | AGCTTGGG | -0.175
12 | GGTTTGCA | -0.0784
13 | CCCTAGCA | -0.19
14 | GCTCTGCC | -0.205
15 | AGCAAACA | -0.00238
16 | CCAGGTCA | -0.325
17 | CAGCGTCA | -0.206
18 | GGGTTAAC | -0.0436
19 | GGATTCCC | -0.215
20 | CATTGAGA | 0.0216
21 | AGTTCCTG | -0.187
22 | CATTGCGA | 0.0588
23 | CGTTCAAA | 0.111
24 | CCTCTTAC | 0.0857
25 | TGGCTCAA | 0.00085

Row | Sequence | PBM E-score
26 | AATCTGAT | 0.0789
27 | CTCATGCC | 0.193
28 | ACGACGGG | -0.0299
29 | CTTTTGTA | 0.0954
30 | AGCGAGAC | -0.147
31 | CCTAGTAC | -0.0241
32 | CTGCACCA | -0.199
33 | CCAGGCAA | -0.0743
34 | CCTGGACA | -0.187
35 | GTGGTGAA | -0.0667
36 | TGCAACCA | -0.11
37 | CACGGGCA | 0.231
38 | CTTCTGGC | -0.0139
39 | AACTTTGT | 0.112
40 | GGTTATCA | -0.21
41 | ATTCCCCA | -0.27
42 | CAGTAACC | 0.0449
43 | CATTCACG | 0.0454
44 | GGTGTGGA | -0.00275
45 | GGACCTAA | -0.0501
46 | GGGGGACA | -0.445
47 | CGTGGAAG | 0.0292
48 | CGCCTTAA | 0.211
49 | CCCTTAAC | -0.155
50 | AGACCCTC | -0.313

Row | Sequence | PBM E-score
51 | ATCACTTC | 0.0639
52 | CGCCATGC | 0.226
53 | GGGTAACA | -0.132
54 | CACGCGTC | 0.0631
55 | ATATAATA | 0.205
56 | CACGGGGC | 0.241
57 | CGCCGTGA | 0.376
58 | AGAGGTCA | -0.276
59 | CAATCGTA | 0.121
60 | CACAGCGC | 0.148
61 | GTCCTAAC | -0.0457
62 | CGCCGCCG | 0.402
63 | ATCCAAAG | 0.168
64 | ACTAGGGC | -0.00553
65 | AAGGGGGG | -0.365
66 | TACTGGAA | -0.0529
67 | ATTAACCG | 0.111
68 | CAGTACTG | -0.0293
69 | ATGGATGC | -0.102
70 | GACTCTAC | -0.266
71 | AAAATACG | 0.0892
72 | CAATTTCA | 0.0644
73 | GGAGGGCA | 0.0187
74 | CGGTCTAG | -0.113
75 | ACTCGTCA | -0.0629

Row | Sequence | PBM E-score
76 | CTTAGGGA | -0.232
77 | AGTGTCAG | -0.135
78 | ACTCCATC | -0.113
79 | AAGTTAGG | 0.0337
80 | ACAACAAG | 0.0597
81 | CAGCACAC | -0.198
82 | GCTGCGGA | 0.106
83 | GGACCCTA | -0.26
84 | GTGTATCA | 0.146
85 | CCCCAACG | -0.158
86 | CGAGTAAC | 0.0688
87 | ACGTGCAT | 0.0861
88 | CTAGCACA | -0.163
89 | ACTTCCCC | -0.309
90 | TTCGACAA | 0.124
91 | GCTGCCAA | 0.0212
92 | CACCCACG | 0.131
93 | ATATGGCA | 0.273
94 | ACAGACTC | -0.118
95 | GATGTTGC | 0.223
96 | AATCCTCG | -0.184
97 | AGTGTCTC | -0.194
98 | CCGTTTAA | 0.349
99 | CGCTGTCA | -0.253
100 | ACCAGTTA | 0.00467

Row | Sequence | PBM E-score
101 | GTTCTTCA | 0.174
102 | GTGTGTGA | 0.126
103 | GAATGGTA | 0.0879
104 | ATGGCAAC | 0.289
105 | AAATCGTA | 0.125
106 | CACACAGG | -0.0675
107 | CTTTTTAC | 0.182
108 | CGGAATAA | -0.0973
109 | ATGGTAAA | 0.0118
110 | AAGATCGT | -0.134
111 | AGTTCTTG | 0.133
112 | CACTGCAC | 0.0109
113 | CCCGGATC | -0.139
114 | AGCCATAC | -0.0165
115 | TGCACAAA | 0.0921
116 | CTCTTTTA | -0.183
117 | AGGTTCCG | -0.0225
118 | AAAGATCC | 0.0284
119 | CAGGGTCG | -0.13
120 | GGTGACAA | 0.0331
121 | TTCCTAAA | 0.0739
122 | GCATCACC | 0.0109
123 | CCCGGCAA | 0.0207
124 | GCCCTGCC | 0.277
125 | AGGTGAGG | -0.0113

Row | Sequence | PBM E-score
126 | CTGAACGC | -0.103
127 | CAATACGC | 0.175
128 | CCGGCCGG | 0.0502
129 | AGAAGTCC | -0.126
130 | AGGTATTA | 0.118
131 | ACTACTAG | 0.161
132 | TCGGCGAA | -0.0263
133 | AGCGCGCT | -0.172
134 | GCTTGCCA | -0.0643
135 | CTGAAGTC | -0.0901
136 | ACTCTAAA | 0.118
137 | AAGAGGTG | 0.0582
138 | CTACCGCA | 0.0499
139 | CATAATCG | 0.0926
140 | ATTAAGTC | 0.0493
141 | TCAAATGA | -0.083
142 | AATGAAGT | 0.0747
143 | ATATCGGG | -0.00836
144 | GGACTCTA | -0.344
145 | ACGGCGAG | 0.437
146 | AACGGGAA | 0.0169
147 | GCATACAA | 0.14
148 | GCATCCCC | -0.143
149 | ACGTGTAG | -0.122
150 | ACCACGTG | -0.0625

Row | Sequence | PBM E-score
151 | ACCAGCGC | -0.0679
152 | GCTTGATA | 0.145
153 | TCCTAAGA | 0.00923
154 | GTTGTAAA | -0.118
155 | ATATGATG | -0.103
156 | AGGGCAGC | -0.214
157 | AAACATGG | 0.0475
158 | ATGCACAA | -0.0204
159 | CGTCGGTA | -0.0891
160 | AGTCACCC | -0.104
161 | GAATAAAA | 0.155
162 | TCGCCCAA | 0.055
163 | ATGAATAC | 0.16
164 | CAACCGGG | -0.101
165 | TGATTCAA | 0.141
166 | CACATGGA | -0.0235
167 | TGTGATAA | 0.103
168 | AAGTGCAA | 0.0993
169 | CACGCCGG | -0.0191
170 | TGAAAAAA | 0.196
171 | ATTATTAA | 0.0896
172 | GCCATCGC | 0.0959
173 | ATGAGGAC | -0.235
174 | AGATAATG | 0.194
175 | CGTTTGCC | 0.101

Row | Sequence | PBM E-score
176 | CTCATAGA | 0.0227
177 | ACAAAGTG | -0.0329
178 | TATACTGA | 0.266
179 | ACAATCGA | 0.0853
180 | ACGCGCGG | 0.316
181 | CGTATTAG | 0.223
182 | TCTAGAGA | -0.167
183 | CCCTGAGG | -0.0789
184 | CCATAATA | 0.0721
185 | CAGTGATC | 0.0271
186 | ATTCATCC | -0.105
187 | AAAAGGTT | -0.0226
188 | AGATAGTC | -0.137
189 | CCCATCGC | 0.0933
190 | GTTTCTTA | 0.0294
191 | CGTGACCC | 0.00978
192 | AGTGGCCG | -0.0146
193 | CTCTCGCC | -0.211
194 | GGCTGAAA | 0.103
195 | AGATCGAA | 0.118
196 | ATGTCGGA | -0.0545
197 | GAATTACA | -0.0444
198 | GCGGGAAA | 0.0749
199 | AGGTAGTG | -0.105
200 | AAATTGGA | 0.0945

Row | Sequence | PBM E-score
201 | ACCAGGTA | -0.355
202 | AACGATTG | 0.0458
203 | CCTTGGAG | 0.0228
204 | ACCGTCCT | -0.242
205 | CAATGAGA | -0.114
206 | ACGGTTAT | 0.00425
207 | CCGTTGCG | 0.1
208 | CACACGTA | -0.0636
209 | GAGTGTGA | -0.066
210 | GCAGCGGC | 0.32
211 | AAAGCCGC | 0.369
212 | CGGCCAAC | -0.0869
213 | ATCCCTAA | -0.237
214 | CGGAGGGA | -0.222
215 | GAGAAACA | 0.147
216 | GAGATGGA | -0.151
217 | CTCCGAAA | -0.0604
218 | CGCAAAGC | 0.126
219 | ACGAGGGA | -0.0556
